Reference: PubChem BioAssay AID504339 (National Center for Advancing Translational Sciences (NCATS), 2011)
Out of some 390,000 compounds screened, about 17,000 (4.4%) were called active. Inconclusive means that the source gave no clear call. Such entries were picked first, then a sample of the others. Calls come from the whole dose curve; as a rule, active = well fitted inhibition curve with a large enough effect; inconclusive = small, poorly fitted or top-dose-only effect; inactive = no such curve, though single readings can be large or run the other way. Where the call is inconclusive, the potency comes from a doubtful curve fit.

target: Lysine-specific demethylase 4A (Homo sapiens) (UniProt O75164); test: qHTS Assay for Inhibitors of JMJD2A-Tudor Domain; conditions: AlphaScreen JMJD2A-Tudor / H3K4me3 peptide binding; activity change, negative = inhibition: at 114 µM (top of the series); note: nearly all actives have a fitted effect of over 50% in size
Sequence of UniProt O75164 (O75164 whole entry, looked up, the tested form may be a part): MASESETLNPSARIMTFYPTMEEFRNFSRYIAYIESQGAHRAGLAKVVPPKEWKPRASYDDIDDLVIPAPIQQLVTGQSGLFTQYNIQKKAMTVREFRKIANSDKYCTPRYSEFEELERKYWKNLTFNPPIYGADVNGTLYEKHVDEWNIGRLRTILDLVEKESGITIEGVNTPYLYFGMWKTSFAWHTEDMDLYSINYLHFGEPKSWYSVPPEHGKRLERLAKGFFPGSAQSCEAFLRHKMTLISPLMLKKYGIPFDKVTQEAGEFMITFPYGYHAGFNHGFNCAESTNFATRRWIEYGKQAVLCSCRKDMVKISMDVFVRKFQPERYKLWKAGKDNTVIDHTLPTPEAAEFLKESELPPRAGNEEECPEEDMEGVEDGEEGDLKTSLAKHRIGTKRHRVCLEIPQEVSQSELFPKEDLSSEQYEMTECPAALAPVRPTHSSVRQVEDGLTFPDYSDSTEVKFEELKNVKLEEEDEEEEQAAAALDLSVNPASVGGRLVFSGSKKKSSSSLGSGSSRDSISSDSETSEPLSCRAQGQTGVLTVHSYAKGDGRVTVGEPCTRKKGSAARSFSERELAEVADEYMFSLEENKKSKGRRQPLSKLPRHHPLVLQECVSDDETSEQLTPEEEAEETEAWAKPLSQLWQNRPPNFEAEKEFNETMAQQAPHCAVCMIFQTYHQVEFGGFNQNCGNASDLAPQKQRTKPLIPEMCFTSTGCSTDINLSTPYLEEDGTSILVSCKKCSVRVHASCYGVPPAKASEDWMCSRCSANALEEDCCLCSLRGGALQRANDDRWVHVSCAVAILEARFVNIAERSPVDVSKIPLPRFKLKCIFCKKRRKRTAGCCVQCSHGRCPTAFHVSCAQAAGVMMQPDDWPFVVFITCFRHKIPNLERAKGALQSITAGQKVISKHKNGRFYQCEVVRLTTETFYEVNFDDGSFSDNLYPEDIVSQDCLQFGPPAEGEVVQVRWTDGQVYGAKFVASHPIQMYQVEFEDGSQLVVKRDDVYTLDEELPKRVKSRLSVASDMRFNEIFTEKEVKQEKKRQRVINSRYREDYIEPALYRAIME
% is set by controls: 0 for no effect and ±100 for the full control effect; potency is the fitted concentration of half-maximal effect; tags give direction and shape of the fitted curve.

**Q.** How did the Potency turn out when `CN(C)CCNC(=O)c1ccc2c(c1)N(Cc1c(F)cccc1Cl)C(=O)c1ccccc1S2` was run?
**A.** The Potency was inconclusive: 10 µM [inhibitor, full curve, poor fit].

**Q.** How did the Potency turn out when `O=C(Nc1ccc(C2=NCCN2)cc1)c1ccc(C(=O)Nc2ccc(C3=NCCN3)cc2)c([N+](=O)[O-])c1` was run?
**A.** Its Potency is inconclusive: 56.2 µM [inhibitor, partial curve].

**Q.** `COc1cccc(C(c2ccccc2)N2C3CCC2CN(S(=O)(=O)c2ccc(F)cc2)CC3)c1` (centres undefined) was tested. Which “activity change, negative = inhibition” value did it give?
**A.** The value was inactive: -8.28%.

**Q.** How did the “activity change, negative = inhibition” value turn out when `O=[N+]([O-])c1c(Nc2ccccc2)ccc2nonc12` was run?
**A.** Its value is inactive: -7.14%.

**Q.** `COc1ccc(OCc2cc(C(=O)N3CCCC(CO)C3)no2)c2ccccc12` (centres undefined) was tested. Which Potency did it give?
**A.** Its Potency is inconclusive: 56.2 µM [inhibitor, full curve, poor fit].

**Q.** With `COc1ccccc1-n1ccnc1SCC(=O)NCc1ccco1` as the compound, how does the Potency read?
**A.** Its Potency is active: 39.8 µM.

**Q.** `O=C(COC(=O)c1cc(S(=O)(=O)N2CCOCC2)ccc1Cl)Nc1ccc2c(c1)OCO2` was tested. Which Potency did it give?
**A.** The Potency was inconclusive: 89.1 µM [inhibitor, partial curve, poor fit].

**Q.** How did the “activity change, negative = inhibition” value turn out when `COCCN(C)C(=O)CC1C(=O)NCCN1CC(c1ccccc1)c1ccccc1` (centres undefined) was run?
**A.** The value was inactive: -8.28%.

**Q.** For `Cc1cc(C)c(NC(=O)Cn2c(=O)n(Cc3ccc(C(=O)NCc4ccco4)cc3)c(=O)c3sccc32)c(C)c1`, which “activity change, negative = inhibition” value is on record?
**A.** The value was inactive: -4.1%.

**Q.** Which “activity change, negative = inhibition” value does the source give for `Cc1nnc(N2CCCC(C(=O)NCCc3ccccc3)C2)c2nn(-c3ccccc3)c(C)c12` (centres undefined) here?
**A.** The value was inactive: -6.21%.

**Q.** `COc1ccc(NS(=O)(=O)c2cc(NC(=O)c3cnccn3)ccc2N2CCCC2)cc1` was tested. Which Potency did it give?
**A.** Its Potency is inconclusive: 28.2 µM [inhibitor, single point].

**Q.** Which Potency does the source give for `CCc1cc2c(SCc3nc4sc(C(C)=O)c(C)c4c(=O)[nH]3)ncnc2s1` here?
**A.** The Potency was inconclusive: 22.4 µM [inhibitor, partial curve].

**Q.** `CSCCC(NC(=O)c1ccccc1Cl)C(=O)Nc1ccc(C)c(S(=O)(=O)N2CCOCC2)c1` (centres undefined) was tested. Which “activity change, negative = inhibition” value did it give?
**A.** Its value is inactive: -24.1%.

**Q.** Which Potency does the source give for `Cc1cc(-n2nc(C)cc2C)nc(NS(=O)(=O)c2ccccc2)n1` here?
**A.** Its Potency is inconclusive: 39.8 µM [inhibitor, single point].

**Q.** Which “activity change, negative = inhibition” value does the source give for `N#Cc1ccc(-c2ccc(OCC(=O)NN=Cc3ccncc3)cc2)cc1` here?
**A.** The value was inactive: -16.7%.

**Q.** How did the Potency turn out when `O=C1c2ccc(Cl)cc2S(=O)(=O)c2cccc(C(=O)N3CCN(c4ccc(Cl)cn4)CC3)c21` was run?
**A.** The Potency was inconclusive: 14.1 µM [inhibitor, full curve].

**Q.** For `COc1ccc(C)cc1Nc1nc(N)c2cc(OC)c(OC)cc2n1`, which Potency is on record?
**A.** Its Potency is inconclusive: 50.1 µM [inhibitor, partial curve].

**Q.** With `CCN(CC)CC(O)CN1c2ccccc2Sc2ccccc21` (centres undefined) as the compound, how does the Potency read?
**A.** The Potency was inconclusive: 44.7 µM [inhibitor, single point].

**Q.** Which “activity change, negative = inhibition” value does the source give for `CCOc1ccccc1-n1c(SCC(=O)N2CCOCC2)nnc1-c1ccccn1` here?
**A.** The value was inactive: 0.316%.

**Q.** Which “activity change, negative = inhibition” value does the source give for `O=C(COC(=O)c1ccc(Cl)c(S(=O)(=O)N2CCCCCC2)c1)Nc1ccccc1` here?
**A.** Its value is inactive: -10.8%.

**Q.** How did the Potency turn out when `CCCCn1c(SCC(=O)NCc2ccc(C)cc2)nc2c(sc3ccccc32)c1=O` was run?
**A.** The Potency was inconclusive: 79.4 µM [inhibitor, partial curve].

**Q.** How did the “activity change, negative = inhibition” value turn out when `CC1CN(C(=O)c2cc3c(=O)n4ccccc4nc3n2C)CC(C)O1` (centres undefined) was run?
**A.** Its value is inactive: -2.07%.

**Q.** `O=[N+]([O-])c1cc([N+](=O)[O-])c(Oc2ccc(Cl)c3cccnc23)cc1NN1CCCCC1` was tested. Which Potency did it give?
**A.** The Potency was inconclusive: 11.2 µM [inhibitor, full curve].

**Q.** For `Cc1ccn2cc(-c3cccc(NC(=O)c4cccs4)c3)nc2c1`, which Potency is on record?
**A.** The Potency was inconclusive: 79.4 µM [inhibitor, partial curve].

**Q.** For `CC(C)c1ccc(CN(C(=O)C2COc3ccccc3O2)C2CCS(=O)(=O)C2)cc1` (centres undefined), which “activity change, negative = inhibition” value is on record?
**A.** Its value is inactive: -18.7%.

**Q.** How did the Potency turn out when `Cc1ccc(-n2c(C)cc(C(=S)N3CCOCC3)c2C)cc1C` was run?
**A.** The Potency was active: 44.7 µM.

**Q.** Which Potency does the source give for `Cc1cc(C(=O)Nc2sccc2C(N)=O)c(C)o1` here?
**A.** The Potency was inconclusive: 56.2 µM [inhibitor, partial curve].

**Q.** How did the Potency turn out when `CCN(c1ccccc1)S(=O)(=O)c1cc(C(=O)OC(C)C(=O)Nc2ccc3c(c2)OCCO3)ccc1C` (centres undefined) was run?
**A.** The Potency was inconclusive: 25.1 µM [inhibitor, partial curve].

**Q.** For `CCOc1ccc(NC(=S)N(CCc2c(C)[nH]c3ccc(C)cc23)Cc2cccnc2)cc1`, which Potency is on record?
**A.** The Potency was inconclusive: 11.2 µM [inhibitor, full curve].

**Q.** For `Cc1ccc(S(=O)(=O)Nc2ccc(-c3nc4ccc(C)cc4s3)cc2)cc1`, which Potency is on record?
**A.** Its Potency is inconclusive: 0.708 µM [inhibitor, full curve, poor fit].

**Q.** Which Potency does the source give for `CNc1ccccc1C(C)(C)c1cc(-c2ccco2)n[nH]1` here?
**A.** The Potency was inconclusive: 50.1 µM [inhibitor, partial curve].

**Q.** `CN1CCN(C2Cc3ccccc3Sc3ccc(Cl)cc32)CC1` (centres undefined) was tested. Which Potency did it give?
**A.** Its Potency is active: 79.4 µM.

**Q.** `C=C(C)COc1ccc(-c2nc(N)ncc2-c2ccccc2OC)c(O)c1` was tested. Which Potency did it give?
**A.** Its Potency is inconclusive: 39.8 µM [inhibitor, partial curve].

**Q.** For `COc1ccc(/C=N/Nc2nc(N3CCCC3)nc(N3CCCC3)n2)cc1`, which Potency is on record?
**A.** The Potency was inconclusive: 89.1 µM [inhibitor, partial curve].

**Q.** `NCCCN(Cc1ccccc1)c1ccc(Br)cn1` was tested. Which “activity change, negative = inhibition” value did it give?
**A.** The value was inactive: -19.7%.

**Q.** `COc1cc(/C=C2/SC(=S)N(Cc3ccccc3)C2=O)cc(Cl)c1O` was tested. Which Potency did it give?
**A.** The Potency was active: 25.1 µM.

**Q.** With `COc1ccc(N2CCN(C3CCCN(S(=O)(=O)c4ccc(C)cc4C)C3)CC2)cc1` (centres undefined) as the compound, how does the Potency read?
**A.** Its Potency is active: 31.6 µM.

**Q.** How did the Potency turn out when `COCc1cc(=O)n2[nH]cc(-c3ccsc3)c2n1` was run?
**A.** Its Potency is inconclusive: 89.1 µM [inhibitor, single point].

**Q.** For `CC1SC(=S)N(c2ccc(N(C)C)cc2)C1=O` (centres undefined), which Potency is on record?
**A.** Its Potency is inconclusive: 56.2 µM [inhibitor, single point].

**Q.** For `C/C(=N\NC(=O)c1cc(O)ccc1O)c1cccc(NC(=O)c2cccc(Cl)c2)c1`, which Potency is on record?
**A.** Its Potency is inconclusive: 56.2 µM [inhibitor, partial curve].

**Q.** Which “activity change, negative = inhibition” value does the source give for `COc1ccc(-c2nc3ccccc3n3c(-c4ccccc4)c4c(=O)n(C)c(=O)n(C)c4c23)cc1` here?
**A.** Its value is inactive: 8.93%.

**Q.** Which Potency does the source give for `COc1ccc2c(Sc3ccc(Cl)cc3)c(C(=O)N3CCCCC3)[nH]c2c1` here?
**A.** Its Potency is inconclusive: 17.8 µM [inhibitor, full curve].

**Q.** Which Potency does the source give for `c1ccc(OCc2nn3c(Cn4nnc5ccccc54)nnc3s2)cc1` here?
**A.** The Potency was inconclusive: 89.1 µM [inhibitor, partial curve].

**Q.** Which Potency does the source give for `O=S1(=O)N=C(N/N=C/c2ccc(Br)o2)c2ccccc21` here?
**A.** Its Potency is inconclusive: 50.1 µM [inhibitor, partial curve].
